Assay results from PubChem BioAssay (NCATS).
This list was built around the results that the source calls inconclusive (neither active nor inactive); the mix of calls is not that of the screen. For part of these data: Potencies beside an inconclusive call are fits to weak or partial responses and may not hold up. The source made the active and inactive calls. Unless noted, calls come from the whole dose curve; as a rule, active = well fitted curve in the direction sought with a large enough effect; inconclusive = small, poorly fitted or top-dose-only effect, or another doubt; inactive = no such curve, though single readings can be large; an effect the other way counts as inactive or inconclusive.

What was measured:
[1] = P-glycoprotein substrates identified in KB-8-5-11 adenocarcinoma cell line, qHTS therapeutic library screen (AID 1346987); note: potency is the fitted concentration of half-maximal effect; nearly all actives have a fitted effect of over 65% in size
How it was run: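 Human cervical adenocarcinoma KB-8-5-11 cells, selected in colchicine to over-express P-gp and assayed without it, were exposed for 72 h to titrated compounds. An ATP-based luminescent viability signal gave AC50.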

HaCat = assay: Cytotoxic Profiling of Annotated Libraries Using Quantitative High-Throughput Screening (AID 1296008); settings: Five cell lines viability, CellTiter-Glo ATP luminescence, 48-72 h; max response: stronger effect = lower value; note: potency is the fitted concentration of half-maximal effect; nearly all actives have a fitted effect of over 60% in size
How it was run: (§1)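 Cells exposed to compounds for 48 or 72 hr at 37 degrees Celsius. Viability read as ATP-coupled luminescence with CellTiter-Glo after 10 min at room temperature.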

KB-3-1 = assay: as above; settings: Five cell lines viability, CellTiter-Glo ATP luminescence, 48-72 h; max response: stronger effect = lower value
How it was run: as §1

NIH3T3 = assay: as above; settings: Five cell lines viability, CellTiter-Glo ATP luminescence, 48-72 h; max response: stronger effect = lower value
How it was run: as §1

CAOV3 = assay: Primary qHTS to identify gynecologic anti-cancer compounds using libraries of approved drugs and bioactive compounds (AID 1345084); settings: Gynecologic cancer cell panel viability, ATPlite luminescence, 48 h; activity change, negative = cytotoxicity: at 57.5 µM (top of the series); note: potency is the fitted concentration of half-maximal effect; nearly all actives have a fitted effect of over 55% in size
How it was run: (§2)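 Five-concentration response, 48 h; readout is ATP-driven luciferase luminescence.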

Es-2 = assay: as above; settings: Gynecologic cancer cell panel viability, ATPlite luminescence, 48 h; series mostly up to 57.5 µM
How it was run: as §2

Hek293T = assay: as above; settings: Gynecologic cancer cell panel viability, ATPlite luminescence, 48 h, control line for the selectivity index; activity change, negative = cytotoxicity: at 57.5 µM (top of the series) unless noted
How it was run: as §2

JEG-3 = assay: as above; settings: Gynecologic cancer cell panel viability, ATPlite luminescence, 48 h; series mostly up to 57.5 µM
How it was run: as §2

OV90 = assay: as above; settings: Gynecologic cancer cell panel viability, ATPlite luminescence, 48 h; series mostly up to 57.5 µM
How it was run: as §2

PA-1 = assay: as above; settings: Gynecologic cancer cell panel viability, ATPlite luminescence, 48 h; series mostly up to 57.5 µM
How it was run: as §2

Tov-21-G = assay: as above; settings: Gynecologic cancer cell panel viability, ATPlite luminescence, 48 h; activity change, negative = cytotoxicity: at 57.5 µM (top of the series) unless noted
How it was run: as §2

[2] = test system: Zika virus NS2B-NS3 protease (unlinked complex); assay: Primary screen GU Rhodamine qHTS for Zika virus inhibitors: Unlinked NS2B-NS3 protease assay (AID 1347159); note: potency is the fitted concentration of half-maximal effect; nearly all actives have a fitted effect of over 60% in size
How it was run: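 Percent inhibition came from the 15-min rise in Rhodamine110 fluorescence (1.5 microM substrate, ~15% conversion), normalized to no-inhibitor and no-enzyme wells and Hill-fitted. Unlinked protease, 25 nM, pH 8.0 Tris buffer; compounds up to 114 microM, 15-min preincubation.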

[3] = test system: Zika virus NS2B-NS3 protease (linked construct); assay: Primary screen NINDS Rhodamine qHTS for Zika virus inhibitors (AID 1347160); settings: activity change, negative = inhibition: at 57.1 µM (top of the series) unless noted; note: potency is the fitted concentration of half-maximal effect; nearly all actives have a fitted effect of over 55% in size
How it was run: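 Rhodamine110-peptide cleavage (1.5 µM substrate) by 25 nM linked NS2B-NS3 enzyme at pH 8.0 (Tris, Tween 20), after 15 min RT preincubation with compounds; 15-min fluorescence change normalized to controls and Hill-fitted.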

[4] = Primary qHTS for inhibitors of nuclear receptor binding SET domain protein 2 (NSD2) in an isogenic RCH-ACV NSD2 p.E1099K mutant (9B) (AID 1645876); note: potency is the fitted concentration of half-maximal effect; nearly all actives have a fitted effect of over 70% in size
[5] = molecular target: Luciferin 4-monooxygenase (Photinus pyralis) (UniProt P08659); assay: Primary firefly luciferase (FLuc) qHTS assay for identification of artifact compounds. (AID 1845220); note: potency is the fitted concentration of half-maximal effect; nearly all actives have a fitted effect of over 60% in size
How it was run: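 Titrated compounds were incubated 15 min at RT, protected from light, with luciferin and ATP at 10 uM; reaction started with 10 nM FLuc, luminescence imaged at 5 min, and concentration-response fitted by Hill equation.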

[6] = Primary redox qHTS assay for identification of artifact compounds. (AID 1845223); settings: Amplex Red/HRP redox cycling with DTT, fluorescence; series mostly up to 53.8 µM
How it was run: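 Redox-cycling detection via DTT (250 uM final) oxidation coupled to Amplex Red (25 uM)/HRP (250 mU/mL) in HBSS. 15 min preincubation plus 30 min after DTT, room temperature. Ex/Em 525/598 nm; 4-parameter Hill fit against DMSO and 10 uM DA3003.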

[7] = molecular target: Cytochrome P450 3A4 (Homo sapiens) (UniProt P08684); assay: Cytochrome P450 family 3 subfamily A member 4 (CYP3A4) small molecule antagonists: luciferase qHTS assay (AID 1645841; active = well fitted curve in the direction sought with a large enough effect in the repeat runs; inconclusive = weak or mixed curves; inactive = no such curve, though single readings can be large; an effect the other way counts as inactive or inconclusive; note: nearly all actives have a fitted effect of over 45% in size)
Sequence of UniProt P08684 (P08684 whole entry, looked up): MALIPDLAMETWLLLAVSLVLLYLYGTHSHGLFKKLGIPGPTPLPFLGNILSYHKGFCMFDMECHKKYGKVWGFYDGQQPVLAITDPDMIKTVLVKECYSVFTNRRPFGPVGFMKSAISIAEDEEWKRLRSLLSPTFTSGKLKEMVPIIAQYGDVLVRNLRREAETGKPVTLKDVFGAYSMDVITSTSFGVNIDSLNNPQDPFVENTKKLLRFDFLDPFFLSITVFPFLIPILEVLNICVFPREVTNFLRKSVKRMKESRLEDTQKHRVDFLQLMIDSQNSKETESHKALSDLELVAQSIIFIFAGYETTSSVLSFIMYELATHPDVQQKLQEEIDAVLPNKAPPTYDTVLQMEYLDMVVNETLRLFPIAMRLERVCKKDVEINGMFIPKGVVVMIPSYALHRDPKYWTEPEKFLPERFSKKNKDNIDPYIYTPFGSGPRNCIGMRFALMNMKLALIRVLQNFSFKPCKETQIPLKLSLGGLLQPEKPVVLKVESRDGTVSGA
How it was run: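 P450-Glo CYP3A4 enzyme with proluciferin substrate preincubated 10 min with compound at room temperature, then NADPH regeneration 1 h. Luciferin detection reagent added for 20 min; luminescence recorded. Ketoconazole positive control.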

[8] = molecular target: Cytochrome P450 2C9 (Homo sapiens) (UniProt P11712); assay: Cytochrome P450 family 2 subfamily C member 9 (CYP2C9) small molecule antagonists: luciferase biochemical (cell-free) qHTS assay (AID 1645842; active = well fitted curve in the direction sought with a large enough effect in the repeat runs; inconclusive = weak or mixed curves; inactive = no such curve, though single readings can be large; an effect the other way counts as inactive or inconclusive; note: potency is the fitted concentration of half-maximal effect; nearly all actives have a fitted effect of over 55% in size)
Sequence of UniProt P11712 (P11712 whole entry, looked up): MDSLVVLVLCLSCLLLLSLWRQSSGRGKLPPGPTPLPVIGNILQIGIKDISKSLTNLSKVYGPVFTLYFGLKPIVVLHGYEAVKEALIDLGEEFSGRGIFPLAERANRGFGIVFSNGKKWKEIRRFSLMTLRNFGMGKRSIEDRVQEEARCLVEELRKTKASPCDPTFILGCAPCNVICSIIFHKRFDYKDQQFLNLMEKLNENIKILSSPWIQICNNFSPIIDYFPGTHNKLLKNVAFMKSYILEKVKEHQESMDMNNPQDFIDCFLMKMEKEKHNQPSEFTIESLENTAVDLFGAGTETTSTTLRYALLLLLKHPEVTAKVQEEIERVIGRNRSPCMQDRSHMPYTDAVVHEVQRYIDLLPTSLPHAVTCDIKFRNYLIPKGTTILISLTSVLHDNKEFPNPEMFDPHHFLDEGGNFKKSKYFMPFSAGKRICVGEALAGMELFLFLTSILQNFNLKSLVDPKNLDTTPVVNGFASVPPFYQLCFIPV
How it was run: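 P450-Glo CYP2C9 system: proluciferin substrate with enzyme in mix containing 0.4% BSA, 10 min at room temperature, then NADPH regeneration solution added and incubated 1 h at 37C. Detection reagent stopped reaction; luminescence read after 20 min as RLU.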

[9] = Primary qHTS for inhibitors of nuclear receptor binding SET domain protein 2 (NSD2) in an RCH-ACV wild type WT cells (2C) (AID 1645877); settings: activity change, negative = cell killing: at 44.9 µM (top of the series) unless noted; note: potency is the fitted concentration of half-maximal effect; nearly all actives have a fitted effect of over 70% in size
Tags give direction and shape of the fitted curve.

Compound	Potency [1]	Potency (HaCat)	Potency (KB-3-1)	Potency (NIH3T3)	Potency (CAOV3)	Potency (Es-2)	Potency (Hek293T)	Potency (JEG-3)	Potency (OV90)	Potency (PA-1)	Potency (Tov-21-G)	Potency [2]	Potency [3]	Potency [4]	Potency [5]	Potency [6]	Potency [7]	Potency [8]	Potency [9]
C=C1C(=O)O[C@@H]2[C@H]1CC[C@H](C)C(CCC(=O)O)C2(C)O (stereo not given in full)	inconclusive: 25.9 µM [inhibitor, single point]	inconclusive: 29.1 µM [inhibitor, single point]	inconclusive: 25.9 µM [inhibitor, single point]	inconclusive: 23.1 µM [inhibitor, single point]	inconclusive: 39.8 µM [cytotoxic, single point]	inconclusive: 39.8 µM [cytotoxic, single point]	inconclusive: 35.5 µM [cytotoxic, single point]	inconclusive: 35.5 µM [cytotoxic, single point]	inconclusive: 22.4 µM [cytotoxic, single point]	inconclusive: 35.5 µM [cytotoxic, single point]	inconclusive: 17.8 µM [cytotoxic, partial curve]								
CC(C)c1ccc(NC(=O)C(c2ccccc2)N(C)C(=O)Cc2c[nH]c3ccccc23)cc1 (stereo not given)	inconclusive: 18.4 µM [inhibitor, single point]	inconclusive: 29.1 µM [inhibitor, single point]	inconclusive: 18.4 µM [inhibitor, single point]	inconclusive: 23.1 µM [inhibitor, single point]	inconclusive: 39.8 µM [cytotoxic, single point]							active: 79.4 µM	inconclusive: 39.8 µM [inhibitor, single point]	active: 20.5 µM	inconclusive: 30.1 µM [inhibitor, partial curve, poor fit]	inactive			
CNc1nc(Nc2cnn([C@H]3CCN(C4COC4)C[C@@H]3F)c2Cl)ncc1C(F)(F)F	inconclusive: 29.1 µM [inhibitor, single point]	inconclusive: 26.3 µM [inhibitor, single point]	inconclusive: 23.1 µM [inhibitor, single point]	inconclusive: 37.1 µM [inhibitor, single point]						inconclusive: 3.98 µM [rising, partial curve, poor fit]				inconclusive: 5.25 µM [inhibitor, partial curve]			inactive	active: 2.68 µM	inconclusive: 10.3 µM [inhibitor, partial curve]
